Results: PubChem BioAssay (NCATS)
Where “and” joins values, the source holds several entries; their conditions need not be identical. Identical values can stand only once. The inconclusive results got no clear call from the source; some entries with a clear call stand among them for comparison. For some of these results: A potency beside an inconclusive call is a rough fit, not a confirmed value. For some of these results: A note “side channel” means that the fit belongs to a control or component signal, not to the main read-out. Calls of active or inactive are those of the source. Unless noted, calls come from the whole dose curve; as a rule, active = well fitted curve in the direction sought with a large enough effect; inconclusive = small, poorly fitted or top-dose-only effect, or another doubt; inactive = no such curve, though single readings can be large; an effect the other way counts as inactive or inconclusive.

How the values were obtained:
[1] = biological target: Peroxisome proliferator-activated receptor gamma (Homo sapiens) (UniProt P37231); assay: qHTS assay for small molecule agonists of peroxisome proliferator-activated receptor gamma signaling (AID 588536; active = well fitted curve in the direction sought with a large enough effect in the signal ratio, with a control signal flat, not every such curve was filed as active; inconclusive = small, poorly fitted or top-dose-only effect, or effect the other way, or a change in a side signal; inactive = no such curve, though single readings can be large or run the other way; the % refers to the signal ratio; note: potency is the fitted concentration of half-maximal effect;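 for activation: 0% = DMSO basal wells and 100% = rosiglitazone at 2 µM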); conditions: HEK293 PPARg-UAS-bla, beta-lactamase ratio, 16 h; activation: at 76.7 µM (top of the series), percent of rosiglitazone response, DMSO as zero
How it was run: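 PPAR-gamma-UAS-bla HEK293 cells in medium with 1% charcoal/dextran-treated FBS were exposed to compounds for 16 h at 37 C. Beta-lactamase activity was read with CCF4 substrate (405 nm excitation, 460/530 nm emission).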

[2] = biological target: Retinoic acid receptor RXR-alpha (Homo sapiens) (UniProt P19793); assay: qHTS assay for small molecule agonists of retinoid X receptor alpha signaling (AID 588544; calls by dose curve;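 note: 0% = DMSO basal wells and 100% = reference agonist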); conditions: HEK293T RXRa-UAS-bla, beta-lactamase reporter, 18 h; activation: at 76.7 µM (top of the series) unless noted
UniProt P19793, sequence (P19793 whole entry, looked up): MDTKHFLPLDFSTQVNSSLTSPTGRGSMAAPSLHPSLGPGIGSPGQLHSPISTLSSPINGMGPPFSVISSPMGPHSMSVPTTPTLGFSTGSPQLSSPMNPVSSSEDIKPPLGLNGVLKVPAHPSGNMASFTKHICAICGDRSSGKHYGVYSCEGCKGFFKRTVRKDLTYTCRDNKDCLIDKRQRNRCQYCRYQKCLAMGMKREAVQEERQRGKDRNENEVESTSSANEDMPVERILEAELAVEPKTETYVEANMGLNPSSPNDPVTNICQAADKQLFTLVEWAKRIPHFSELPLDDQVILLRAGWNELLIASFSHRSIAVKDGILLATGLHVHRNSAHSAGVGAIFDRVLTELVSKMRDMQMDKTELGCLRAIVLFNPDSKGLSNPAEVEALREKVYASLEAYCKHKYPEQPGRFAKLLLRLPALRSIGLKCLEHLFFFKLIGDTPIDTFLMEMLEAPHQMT

[3] = biological target: Retinoic acid receptor RXR-alpha (Homo sapiens) (UniProt P19793); assay: qHTS assay for small molecule antagonists of retinoid X receptor alpha signaling (AID 588546; active = well fitted inhibition curve with a large enough effect in the signal ratio, with a control signal flat, not every such curve was filed as active; inconclusive = small, poorly fitted or top-dose-only effect, or effect the other way, or a change in a side signal; inactive = no such curve, though single readings can be large or run the other way; the % refers to the signal ratio;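 note: cells stimulated with 9-cis-retinoic acid as agonist; % is set by controls: 0 for no effect and ±100 for the full control effect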); conditions: HEK293T RXRa-UAS-bla, beta-lactamase ratio, antagonist mode
How it was run: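 Beta-lactamase reporter inhibition, read as CCF4 fluorescence ratio (ex 405, em 460/530 nm) after 2 h at RT. HEK293T UAS-bla cells, 2500/well, were stimulated with 9-cis-RA at 500 or 100 nM final alongside test compound for 18 h at 37 C.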

[4] = qHTS assay for small molecule activators of the nuclear factor-kappa B (NF-kB) signaling pathway (AID 651749; active = well fitted activation curve with a large enough effect in the signal ratio; inconclusive = small, poorly fitted or top-dose-only effect, or a change in a side signal; the % refers to the signal ratio; note: potency is the fitted concentration of half-maximal effect); conditions: NF-kB-bla ME-180 cells, beta-lactamase FRET ratio, 16 h; activation: active compounds read high
How it was run: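 ME-180 cells stably carrying a beta-lactamase reporter under an NF-kB response element were exposed to compound or DMSO vehicle for 16 hr at 37C, 5% CO2. Pathway activation was read by FRET, since reporter expression disrupts FRET.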

[5] = qHTS assay to identify small molecules that stimulate interleukin-8 (IL-8) secretion (AID 651758; active = well fitted activation curve with a large enough effect in the signal ratio; inconclusive = small, poorly fitted or top-dose-only effect, or effect the other way, or a change in a side signal; the % refers to the signal ratio; note: potency is the fitted concentration of half-maximal effect); conditions: HTRF ratio (665/615); activation: at 92.2 µM (top of the series)
How it was run: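 THP-1, 2000 cells/well; cpd 16 h, 37 C; add cryptate + XL665 anti-IL-8 Abs; RT 1-3 h; TR-FRET read.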

[6] = qHTS assay for small molecule agonists of the antioxidant response element (ARE) signaling pathway measured by Nrf2-dependant transcriptional activity (AID 720636; active = well fitted curve in the direction sought with a large enough effect in the repeat runs; inconclusive = weak or mixed curves; inactive = no such curve, though single readings can be large; an effect the other way counts as inactive or inconclusive; note: potency is the fitted concentration of half-maximal effect)
How it was run: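 Quantitative HTS format in HepG2 cells stably expressing an ARE-luciferase reporter; 16 hr compound treatment at 37 C, luciferase signal detected with ONE-Glo.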

[7] = qHTS assay for small molecule antagonists of the retinoid-related orphan receptor gamma (ROR-gamma) signaling pathway - cell viability counter screen (AID 720652; active = well fitted curve in the direction sought with a large enough effect in the repeat runs; inconclusive = weak or mixed curves; inactive = no such curve, though single readings can be large; an effect the other way counts as inactive or inconclusive;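 note: potency is the fitted concentration of half-maximal effect; compound exposure lasted 16 hr before ATP read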)
How it was run: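 Counter screen in CHO cells carrying TET-inducible ROR-gamma and an ROR response element-luciferase reporter; cells plated 5 hr, compound pinned, doxycycline added, then 16 hr at 37 C. Viability read as intracellular ATP by CellTiter-Glo luminescence.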

[8] = qHTS assay for cell viability of HEK293 cells (AID 743288); conditions: ATP luminescence (CellTiter-Glo), 18 h; max response: active compounds read low; note: potency is the fitted concentration of half-maximal effect; nearly all actives have a fitted effect of over 50% in size
How it was run: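 Total intracellular ATP, measured with a luciferase-coupled reagent, indicates the number of viable HEK293 cells. Exposure to test chemicals lasts 18 h at 37 C in 1,536-well format at 2,000 cells/well.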

[9] = qHTS assay for cell viability of the p53RE-bla HCT-116 cell line (AID 743292); note: potency is the fitted concentration of half-maximal effect; nearly all actives have a fitted effect of over 55% in size
How it was run: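 Viability of compound-treated p53RE-bla HCT-116 cells is taken from ATP-dependent luciferase luminescence. Treatment lasts 16 h at 37 C after a 5 h settling period; detection follows 30 min at room temperature.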
Tags give direction and shape of the fitted curve or compound fluorescence and quenching.

C=CC(=O)OCCOCCOCCOCCOC(=O)C=C
inconclusive: Potency [1] 8.91 µM [side channel, falling, full curve, poor fit] | activation [1] -14.7% | activation [2] -30.4% and -31.5% | max response [3] -77.4% and -90.2% | Potency [4] 15.8 µM [side channel, falling, partial curve, poor fit] and 20 µM [side channel, falling, partial curve, poor fit] | Potency [5] 66.8 µM [inhibitor, single point] | Potency [7] 59.6 µM [rising, single point] | Potency [8] 28.2 µM [cytotoxic, partial curve] and 39.8 µM [cytotoxic, partial curve] | Potency [9] 79.4 µM [cytotoxic, single point]
active: Potency [6] 66.8 µM
